# Measured values reported in PMC4336329 (PLoS ONE, 2015).
# The whole screen tested about 310,000 compounds, of which about 14,000 (4.5%) showed an effect of 50% or more. The effect is printed as a negative number. The list shows a part of the results.
# Target: human ether-à-go-go-related gene (hERG) potassium channel (human, UniProt Q12809)
# Test: primary screen, population patch clamp on CHO cells stably expressing hERG
# 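Note: peak tail current of the secondary pulse compared with the same well before compound.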
# Chain of human ether-à-go-go-related gene (hERG) potassium channel (Q12809 whole entry, looked up): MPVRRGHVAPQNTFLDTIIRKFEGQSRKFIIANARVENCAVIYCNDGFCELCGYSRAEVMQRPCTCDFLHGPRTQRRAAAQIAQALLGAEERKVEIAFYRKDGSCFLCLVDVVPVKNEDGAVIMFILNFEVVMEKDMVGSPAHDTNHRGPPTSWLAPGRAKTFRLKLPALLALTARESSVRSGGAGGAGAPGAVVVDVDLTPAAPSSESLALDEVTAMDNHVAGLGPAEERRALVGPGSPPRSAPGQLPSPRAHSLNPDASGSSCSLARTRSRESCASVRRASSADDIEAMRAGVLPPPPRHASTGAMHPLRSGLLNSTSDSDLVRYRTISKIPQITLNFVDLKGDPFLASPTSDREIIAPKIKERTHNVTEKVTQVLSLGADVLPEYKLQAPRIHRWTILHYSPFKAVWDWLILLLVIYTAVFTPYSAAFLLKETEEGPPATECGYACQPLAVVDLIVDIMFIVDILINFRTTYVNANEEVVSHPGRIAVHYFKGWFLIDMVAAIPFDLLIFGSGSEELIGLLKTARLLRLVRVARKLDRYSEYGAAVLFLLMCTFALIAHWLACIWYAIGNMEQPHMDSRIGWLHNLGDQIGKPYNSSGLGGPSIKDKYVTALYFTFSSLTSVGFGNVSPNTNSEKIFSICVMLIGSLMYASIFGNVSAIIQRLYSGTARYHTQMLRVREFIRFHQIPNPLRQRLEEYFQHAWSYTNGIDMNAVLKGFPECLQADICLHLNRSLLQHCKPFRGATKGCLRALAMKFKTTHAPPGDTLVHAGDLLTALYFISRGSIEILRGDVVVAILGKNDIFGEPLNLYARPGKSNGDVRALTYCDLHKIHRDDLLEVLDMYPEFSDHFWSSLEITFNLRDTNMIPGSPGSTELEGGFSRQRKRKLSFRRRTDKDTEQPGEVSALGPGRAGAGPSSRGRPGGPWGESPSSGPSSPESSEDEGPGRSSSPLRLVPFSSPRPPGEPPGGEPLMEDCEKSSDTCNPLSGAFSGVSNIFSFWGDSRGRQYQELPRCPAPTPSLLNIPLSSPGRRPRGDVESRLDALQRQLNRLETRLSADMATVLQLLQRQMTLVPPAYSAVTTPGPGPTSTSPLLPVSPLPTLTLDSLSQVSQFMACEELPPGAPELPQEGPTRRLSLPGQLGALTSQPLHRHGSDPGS
row,Structure (SMILES),"hERG current change (%, negative = inhibition) at 10uM [%]"
1,CCOC(=O)CSc1nc2c(c(=O)n1-c1ccc(OC)cc1)SCC2,-9.55
2,CCCc1cc(-c2n[nH]c(=S)n2C(C)c2ccccc2)cs1 (centres unmarked),9.74
3,Clc1ccc(CSc2nnnn2-c2ccc3c(c2)OCO3)c(Cl)c1,2.12
4,CCC1CCCCN1S(=O)(=O)c1ccc(NC(=O)c2ccncc2)cc1 (centres unmarked),-16.6
5,Cc1cc(C)n(-c2ccc(C(=O)NCc3cccs3)cc2)n1,-39.2
6,Cc1[nH][nH]c(=O)c1C(c1ccc2c(c1)OCO2)c1c(C)[nH][nH]c1=O,17.8
7,CC(C)(C)c1ccc(-c2ccc3c(c2)S(=O)(=O)c2ccccc2C3=O)cc1,15.9
8,COc1ccc2nc(NNC(=O)COc3ccccc3)sc2c1,-2.64
9,Cc1ccc(C(C)(C)C)c(OCCN2CCCC2)c1,-19.5
10,N#Cc1cccc2c1-c1ccccc1/C2=N/NC(N)=S,5.21
11,COc1cc(CC(=O)NNC(=O)c2cc(C)oc2C)cc(OC)c1OC,24.1
12,COc1ccccc1N1N=C(c2cccs2)CC1c1ccccc1 (centres unmarked),1.08
13,O=C(Nc1ccc(S(=O)(=O)N2CCCC2)cc1)c1cnccn1,21.3
14,CCCCn1c(O)c(C=NCCN2CCCCC2)c(=O)[nH]c1=O,-2.31
15,O=C(Cc1ccccc1[N+](=O)[O-])OCC(=O)c1c[nH]c2ccccc12,-3.14
16,CSc1nc2nc3c(c(=O)n2[nH]1)CCCC3,6.27
17,CCOc1cccc2cc(C(=O)Nc3ccccc3-c3ccccc3)c(=O)oc12,-12
18,O=C(Nc1nnc(-c2ccc(Cl)cc2)o1)Nc1ccccc1F,1.31
19,CC1(C)CN=C(Nc2ccc(F)c(Cl)c2)S1,3.15
20,COc1cccc(N(Cc2nnc3n2CCCCC3)C(=O)Nc2ccccc2)c1,8.11
21,COc1ccc(C(=O)c2cnc(/N=C/N(C)C)s2)cc1,5.1
22,Cc1nn(C)cc1CNC(=O)Nc1ccc(Cl)c(Cl)c1,0.612

row,Structure (SMILES),"hERG current change (%, negative = inhibition) at 10uM [%]"
1,Cc1ccc2c(C(=O)CCl)c(C)[nH]c2c1,1.22
2,CCOc1ccc(Nc2ncnc3c2cnn3-c2ccccc2)cc1,8.65
3,COc1ccc(C(=O)ON=C2C=C(C)C(=O)C(C)=C2)cc1,1.65
4,COc1ccc(Br)c(C(=O)NC(C)(C)CO)c1,8.72
5,CC1=C(C(=O)OC2CCCCCCC2)C(c2cccc(O)c2)NC(=O)N1 (centres unmarked),-29.5
6,N/C(=N\OC(=O)COc1ccc([N+](=O)[O-])cc1)c1ccncc1,-6.75
7,COCCN(C(=O)Cn1nnc2ccccc21)C(C(=O)NC1CCCC1)c1cccc(OC)c1OC (centres unmarked),5.93
8,COc1ccc(N(CC(=O)Nc2ccc(C)c(C)c2)C2=NC3CS(=O)(=O)CC3S2)cc1 (centres unmarked),12.3
9,CCCn1[nH]cc(SC)c(=O)c1=O,-5.83
10,COc1ccc(C(C)=O)cc1COC(=O)C(CO)NS(=O)(=O)c1ccc(Br)cc1 (centres unmarked),-0.0529
11,Cn1c(=O)[nH]c(=O)c2c1nc(CN1CCN(c3cccc(Cl)c3)CC1)n2CCc1ccccc1,-21.8
12,COc1ccccc1C(=O)NCC(=O)OCCCOC(=O)CNC(=O)c1ccccc1OC,-1.36
13,CN(C)c1ccc(/C=[N+](\[O-])C(C)(C)/C=N/O)cc1,-2.54
14,Oc1c(Cl)cc(Cl)cc1/C=N/NC(=S)NC1CC2C=CC1C2 (centres unmarked),-19.6
15,Cc1[nH]c(=O)c(C#N)cc1-c1csc(-c2ccccc2)n1,17
16,COc1cccc2c(Cl)c(CC=C(Cl)Cl)c(C)nc12,24.6
17,O=C(/C=C\c1ccco1)Oc1cccc2cccnc12,-45
18,Cc1nn(C(C)C(=O)NCc2cccs2)c(=O)c2nn(-c3ccccc3)c(C)c12 (centres unmarked),-20.5
19,CC(C)OC(=O)c1ccc2nc3ccccc3nc2c1,21.9
20,COc1cccc(/C=N\NC(=O)c2sc(N)nc2C)c1OC,13.5
21,Cc1ccc2[nH]c3c(=O)n(Cc4ccncc4)cnc3c2c1,4.77
22,COc1nc(OCCNC(=O)Nc2ccccc2)nc(N(C)C)n1,0.266
